This passage reports binding results from article PMC6546734.

The chains behind the UniProt entries cited, without tags or fusion partners. Where a name states a change or a piece, a line headed by the entry shows the natural chain unless it says otherwise.
UniProt Q13485: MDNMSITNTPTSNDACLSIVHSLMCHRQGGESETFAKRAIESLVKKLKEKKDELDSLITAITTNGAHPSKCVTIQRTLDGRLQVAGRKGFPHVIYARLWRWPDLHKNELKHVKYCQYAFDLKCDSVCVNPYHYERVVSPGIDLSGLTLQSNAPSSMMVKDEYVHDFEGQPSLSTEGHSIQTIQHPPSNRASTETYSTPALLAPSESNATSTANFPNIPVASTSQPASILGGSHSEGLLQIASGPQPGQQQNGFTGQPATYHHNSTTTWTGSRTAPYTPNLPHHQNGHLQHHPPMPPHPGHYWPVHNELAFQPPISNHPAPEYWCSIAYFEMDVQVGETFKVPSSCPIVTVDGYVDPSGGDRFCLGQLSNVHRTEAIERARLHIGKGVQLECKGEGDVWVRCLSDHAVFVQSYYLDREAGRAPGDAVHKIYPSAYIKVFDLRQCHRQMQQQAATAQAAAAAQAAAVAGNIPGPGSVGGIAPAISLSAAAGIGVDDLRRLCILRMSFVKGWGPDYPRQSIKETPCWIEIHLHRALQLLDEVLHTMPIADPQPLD
UniProt Q15796: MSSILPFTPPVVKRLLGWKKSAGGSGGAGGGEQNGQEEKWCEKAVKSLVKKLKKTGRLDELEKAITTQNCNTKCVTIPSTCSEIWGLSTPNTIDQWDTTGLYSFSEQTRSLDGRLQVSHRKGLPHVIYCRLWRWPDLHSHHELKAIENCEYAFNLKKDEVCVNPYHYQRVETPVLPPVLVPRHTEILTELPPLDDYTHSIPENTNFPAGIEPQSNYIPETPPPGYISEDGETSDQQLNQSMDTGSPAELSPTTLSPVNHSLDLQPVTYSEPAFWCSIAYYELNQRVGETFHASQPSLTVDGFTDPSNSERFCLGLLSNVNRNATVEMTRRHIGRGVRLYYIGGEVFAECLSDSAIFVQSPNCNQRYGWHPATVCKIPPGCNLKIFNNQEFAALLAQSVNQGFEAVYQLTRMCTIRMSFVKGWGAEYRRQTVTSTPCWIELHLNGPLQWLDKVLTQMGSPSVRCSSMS
UniProt P84022: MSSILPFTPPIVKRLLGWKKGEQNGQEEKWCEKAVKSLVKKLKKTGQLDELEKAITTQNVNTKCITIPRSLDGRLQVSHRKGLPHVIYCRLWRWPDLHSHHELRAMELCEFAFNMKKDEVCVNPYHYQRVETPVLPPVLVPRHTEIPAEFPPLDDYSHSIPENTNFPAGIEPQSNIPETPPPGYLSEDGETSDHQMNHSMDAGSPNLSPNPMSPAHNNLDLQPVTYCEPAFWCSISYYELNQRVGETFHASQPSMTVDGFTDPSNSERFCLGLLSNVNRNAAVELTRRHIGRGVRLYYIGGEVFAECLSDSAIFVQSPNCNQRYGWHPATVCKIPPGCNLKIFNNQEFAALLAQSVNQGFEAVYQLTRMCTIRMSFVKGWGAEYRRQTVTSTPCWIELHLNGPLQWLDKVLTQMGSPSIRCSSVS
UniProt Q15797: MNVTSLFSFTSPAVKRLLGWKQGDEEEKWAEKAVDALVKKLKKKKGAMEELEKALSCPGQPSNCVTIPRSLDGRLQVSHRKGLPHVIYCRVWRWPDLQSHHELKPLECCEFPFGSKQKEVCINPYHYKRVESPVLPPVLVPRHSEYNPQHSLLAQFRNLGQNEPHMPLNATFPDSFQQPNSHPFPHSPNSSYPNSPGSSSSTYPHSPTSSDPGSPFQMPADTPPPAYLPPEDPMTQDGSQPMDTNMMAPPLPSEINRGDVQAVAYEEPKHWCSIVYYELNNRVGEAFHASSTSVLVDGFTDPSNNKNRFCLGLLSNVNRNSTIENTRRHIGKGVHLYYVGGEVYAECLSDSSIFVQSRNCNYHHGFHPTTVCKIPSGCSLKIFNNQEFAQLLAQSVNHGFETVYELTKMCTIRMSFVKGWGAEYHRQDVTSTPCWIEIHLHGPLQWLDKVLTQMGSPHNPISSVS
UniProt P50549: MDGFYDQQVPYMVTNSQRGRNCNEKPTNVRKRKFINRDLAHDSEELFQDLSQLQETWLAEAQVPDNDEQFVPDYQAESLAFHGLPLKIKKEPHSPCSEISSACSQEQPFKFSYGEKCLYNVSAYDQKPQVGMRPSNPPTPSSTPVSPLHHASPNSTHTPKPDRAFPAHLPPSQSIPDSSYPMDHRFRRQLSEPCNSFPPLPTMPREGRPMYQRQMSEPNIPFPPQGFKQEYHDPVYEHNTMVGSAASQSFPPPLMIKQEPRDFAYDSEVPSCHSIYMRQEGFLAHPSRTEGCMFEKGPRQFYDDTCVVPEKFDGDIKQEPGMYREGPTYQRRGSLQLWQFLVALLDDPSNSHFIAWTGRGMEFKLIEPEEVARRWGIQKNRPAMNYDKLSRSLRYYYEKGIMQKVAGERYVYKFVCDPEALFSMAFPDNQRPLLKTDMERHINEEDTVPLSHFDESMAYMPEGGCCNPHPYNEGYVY

These are yes or no findings as the source states them, for the method shown. In cells and extracts the contact can be indirect. Some entries that bind do so weakly or less than the wild type.

One assay concerns the target GST-SMAD4 (UniProt Q13485). Kind of assay: pull-down; GST or GST fusion proteins bound to glutathione agarose beads, incubated 3 h with 293T protein extracts holding 6Myc-tagged ETV1 constructs; 20 mM HEPES pH 7.4, 25 mM NaCl, 0.01% Tween-20, 1 mM DTT; anti-Myc western blot; only the target purified.
The next assay addresses Flag-tagged SMAD2 (UniProt Q15796). Kind of assay: co-IP; 6Myc-ETV1 coexpressed with Flag-tagged SMAD proteins in 293T cells; IP with anti-Flag antibodies, anti-Myc western blot; lysis and washes in 50 mM Tris-HCl pH 7.4, 150 mM NaCl, 50 mM NaF, 0.5% Igepal CA-630, 0.1 mM DTT.
In a further assay the target is Flag-tagged SMAD3 (UniProt P84022). Described as above.
For a further assay, the target named is Flag-tagged SMAD4 (UniProt Q13485). The assay is described as above.
A further assay has as its target Flag-tagged SMAD1 (UniProt Q15797). The description is as above.

For the substance “6Myc-tagged ETV1 truncated from the C-terminus down to amino acid 249 (from UniProt P50549 1-249) (domain or fragment)”, the binding result with GST-SMAD4 is recorded as “no binding”.

Consider “6Myc-tagged ETV1 249-429 (from UniProt P50549 249-429) (domain or fragment)”, for which, in the assay with GST-SMAD4, the binding result is “binds”.

“6Myc-tagged ETV1 249-477 (from UniProt P50549 249-477) (domain or fragment)”: the binding result with GST-SMAD4 is recorded as “binds”.

On to “6Myc-tagged ETV1 333-477 (from UniProt P50549 333-477) (domain or fragment)”, for which the binding entry in the assay with GST-SMAD4 is “no binding”.

“6Myc-tagged ETV1 2-429 (from UniProt P50549 2-429) (domain or fragment)”: the binding result with GST-SMAD4 is recorded as “binds”.

In the case of “6Myc-tagged ETV1 182-477 (from UniProt P50549 182-477) (domain or fragment)”, the binding entry with GST-SMAD4 was “binds”.

Turning to “6Myc-tagged ETV1 249-383 (from UniProt P50549 249-383) (domain or fragment)”, in the assay with GST-SMAD4, the binding entry is given as “no binding”.

For the substance “6Myc-tagged ETV1 truncated from the C-terminus down to amino acid 333 (from UniProt P50549 1-333) (domain or fragment)”, the binding entry in the assay with GST-SMAD4 is recorded as “no binding”.

As to “6Myc-tagged ETV1 (from UniProt P50549 1-477)”, the binding result with GST-SMAD4 was “binds”; in the assay with Flag-tagged SMAD2 it was “no binding”; in the assay with Flag-tagged SMAD3 it was “no binding”; with Flag-tagged SMAD4, “binds”; with Flag-tagged SMAD1 it was “no binding”.
